Measured values published in the supplement of paper PMC4466236.
In all, about 33,000 sequences were measured (“E-score (dimensionless, -0.5 to 0.5)”: median about -0.058, highest 2% from about 0.35 on). Some of the results follow.

Each sequence was assayed on MvaT (assay: PBM 8-mer E-score (mean of HK and ME arrays) (E-score (dimensionless, -0.5 to 0.5)); higher = stronger relative binding preference; most listed sequences are background and not binding sites).
Procedure, shortened: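 Full-length P. aeruginosa MvaT, with glutathione S-transferase fused to its N-terminus (cloned into pTH6838 by isothermal assembly), was tested by protein binding microarray using a previously described protocol. Two universal double-stranded 60-mer arrays (ME and HK) were used, each with a constant 25-mer primer region and a variable 35-mer region covering all 8-mers. The rank-based 8-mer E-score (-0.5 to 0.5) is the mean of the two arrays, parsed with a custom Python script.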

Row | Sequence | PBM 8-mer E-score
1 | ACCCTTGC | -0.0785
2 | ACACCACA | 0.0813
3 | CGTTGAGA | -0.214
4 | ACAACTTG | 0.237
5 | AGGCTTTC | -0.024
6 | CCTAATGA | -0.254
7 | ACTATTGG | 0.165
8 | CTATGTCA | -0.0232
9 | AGAGTGAC | -0.128
10 | GTAATTAA | 0.343
11 | GGTATCTA | 0.0244
12 | CTAACGTA | 0.096
13 | ACGCTCTC | -0.273
14 | TCATATGA | 0.204
15 | CGAGATAA | 0.0958
16 | ATAGGTGC | 0.0145
17 | TCGTAGAA | -0.112
18 | AGGCATAG | -0.161
19 | CATTACAG | 0.0354
20 | CCCCGGCA | -0.121
21 | AGCACCTA | -0.0609
22 | CATGACGG | -0.158
23 | CGCCATCA | -0.12
24 | GGGGTGTA | -0.0911
25 | CGGGTTAA | 0.0999

Row | Sequence | PBM 8-mer E-score
26 | AAAAGGGG | -0.111
27 | GGAAATAA | 0.31
28 | ATCTTCGC | -0.113
29 | ATACAGTC | -0.0525
30 | ACTGTATC | -0.0224
31 | AACGCACC | -0.149
32 | ATGGAATG | -0.0592
33 | TATCCAGA | 0.0481
34 | CCGGGCCG | -0.314
35 | CACCTTAC | 0.0325
36 | AGGCTCTG | -0.239
37 | TAGAAGGA | 0.0517
38 | AACAGAAC | -0.0295
39 | AAATGGTG | -0.107
40 | TCAACTGA | 0.0767
41 | AGGATAGC | -0.177
42 | ACCGTCTG | -0.163
43 | ACACATGA | 0.0834
44 | ATAGCGTG | -0.117
45 | ATTGATTC | 0.19
46 | CACTACTC | -0.00541
47 | ATTGGGAG | -0.0538
48 | ACCAAAGA | 0.0705
49 | TAGCAATA | 0.226
50 | CGTATAGC | 0.0225

Row | Sequence | PBM 8-mer E-score
51 | AGAACAAT | 0.249
52 | GTCGTAAA | -0.0357
53 | CCAACACC | -0.0275
54 | AAAGTGTG | 0.0346
55 | AAAACTCC | 0.0164
56 | CACGATAG | -0.0302
57 | ACACGGTC | -0.206
58 | AGTTACAG | 0.182
59 | GCAGTCAA | 0.0481
60 | AGCTGGGC | -0.183
61 | AGCGGAAT | -0.0784
62 | CGAACGCC | -0.224
63 | GATCATTA | 0.172
64 | CCAAATGA | 0.125
65 | CTAAAAAG | 0.00374
66 | CAGTGTCG | -0.197
67 | GCCAAGGC | -0.237
68 | AAATTCGA | 0.101
69 | GGCATTGA | -0.133
70 | AGATCGAC | -0.122
71 | TCCACACA | -0.0309
72 | AATATTTA | 0.45
73 | ATGCACTG | -0.0096
74 | AGAGCAGA | -0.011
75 | ATATGTAC | 0.368

Row | Sequence | PBM 8-mer E-score
76 | CGCGCACC | -0.169
77 | CGAATTCG | 0.112
78 | GAACGCGA | -0.0383
79 | AGACGGAT | -0.245
80 | ATAGAAAA | 0.173
81 | AAGCCGCT | -0.232
82 | CAGAGGCA | -0.164
83 | ACCGTATA | 0.161
84 | CATAATAA | 0.334
85 | AATTGCGT | 0.192
86 | AGATACTG | 0.0147
87 | ACTCTCAC | -0.0116
88 | AATGACGA | -0.0327
89 | AGCGCTCA | -0.124
90 | CCTTGTCA | -0.218
91 | AAATGTGA | 0.0714
92 | CCTGAATA | 0.0626
93 | CACACAGC | 0.0806
94 | AATATTGC | 0.307
95 | GAAGCACC | -0.126
96 | ATCTTGCA | 0.202
97 | CCGGACAC | -0.138
98 | GACTACTC | -0.0717
99 | CCGTGCAG | -0.147
100 | CAAAGATA | 0.178

Row | Sequence | PBM 8-mer E-score
101 | TACTACCA | 0.148
102 | ACGTGTAC | -0.114
103 | AGTATAAT | 0.336
104 | CTCGCCGA | -0.192
105 | ATCGGATC | -0.129
106 | AGGCGTTA | 0.0311
107 | CAATCCAA | -0.0468
108 | GCATATCC | -0.0669
109 | CGTCCAGA | -0.16
110 | TCCCAGGA | -0.103
111 | GATAGAAA | 0.105
112 | CTAGATAG | -0.103
113 | ATACGGAA | 0.0762
114 | ACCTGCCT | -0.253
115 | CCGATCGA | -0.111
116 | AGTCACGC | -0.107
117 | AAATCTTC | 0.131
118 | GAATTCCA | 0.0476
119 | ACTTGGGC | -0.231
120 | CCTAAGAG | -0.0279
121 | AGAGAACC | -0.192
122 | TGGCCCCA | -0.182
123 | ACAGCGAC | -0.0538
124 | AGGTAGAG | -0.12
125 | CGGCAGTA | -0.0713

Row | Sequence | PBM 8-mer E-score
126 | ATTCCCGG | 1.53e-05
127 | GCTCAAGC | -0.303
128 | TTAAGAAA | 0.242
129 | AAAAATAA | 0.403
130 | CACGTGGG | -0.207
131 | AGAAAATA | 0.259
132 | CCCGGTCC | -0.334
133 | AAGCTTGC | -0.146
134 | GGACGCTA | -0.318
135 | ACCGCGAC | -0.178
136 | CCGTAGAA | 0.0349
137 | GGCCCATA | 0.0568
138 | CAAGCGTA | -0.209
139 | CACCTCGC | -0.076
140 | AGTTATTG | 0.312
141 | ACGGGAGT | -0.192
142 | AAGCCCTA | -0.189
143 | CTTAACAC | 0.122
144 | CCCTGCAA | -0.134
145 | GTATCAAA | 0.089
146 | CCTTGGCA | -0.23
147 | CACATTCC | 0.0346
148 | CCCATAGG | -0.216
149 | AAGGGGCC | -0.346
150 | CTGGCCAA | -0.176

Row | Sequence | PBM 8-mer E-score
151 | CGGCTATC | -0.193
152 | GTTATCGA | 0.0887
153 | ACTTAAAA | 0.226
154 | ATGCGCGC | -0.021
155 | ACGGTTGC | -0.0117
156 | ACATAGCC | -0.128
157 | AGAGAACA | 0.0712
158 | CCCTATTC | -0.0171
159 | AGGAGCCG | -0.264
160 | ATTCCCGC | 0.00135
161 | CCCGCTGA | -0.161
162 | AGGCAGAG | -0.105
163 | AACTATTC | 0.255
164 | ACTCCACC | -0.0666
165 | GGTGGTCA | -0.0917
166 | TGTGGAAA | 0.0507
167 | ATCTTTTC | 0.149
168 | CCAACGCG | -0.14
169 | AACGCCAT | -0.0432
170 | CACGAAGG | -0.186
171 | CTGCATGA | -0.201
172 | AACGACGT | 0.0245
